{"source": "paper PMC4336329", "about": "(PLoS ONE, 2015)", "note": "Screen size: about 310,000 compounds; about 2,200 (0.71%) showed an effect of 50% or more. Effects have a minus sign here. The list shows a part of the results.", "data": [{"molecular_target": "human ether-à-go-go-related gene (hERG) potassium channel (human, UniProt Q12809)", "sequence (Q12809 whole entry, looked up)": "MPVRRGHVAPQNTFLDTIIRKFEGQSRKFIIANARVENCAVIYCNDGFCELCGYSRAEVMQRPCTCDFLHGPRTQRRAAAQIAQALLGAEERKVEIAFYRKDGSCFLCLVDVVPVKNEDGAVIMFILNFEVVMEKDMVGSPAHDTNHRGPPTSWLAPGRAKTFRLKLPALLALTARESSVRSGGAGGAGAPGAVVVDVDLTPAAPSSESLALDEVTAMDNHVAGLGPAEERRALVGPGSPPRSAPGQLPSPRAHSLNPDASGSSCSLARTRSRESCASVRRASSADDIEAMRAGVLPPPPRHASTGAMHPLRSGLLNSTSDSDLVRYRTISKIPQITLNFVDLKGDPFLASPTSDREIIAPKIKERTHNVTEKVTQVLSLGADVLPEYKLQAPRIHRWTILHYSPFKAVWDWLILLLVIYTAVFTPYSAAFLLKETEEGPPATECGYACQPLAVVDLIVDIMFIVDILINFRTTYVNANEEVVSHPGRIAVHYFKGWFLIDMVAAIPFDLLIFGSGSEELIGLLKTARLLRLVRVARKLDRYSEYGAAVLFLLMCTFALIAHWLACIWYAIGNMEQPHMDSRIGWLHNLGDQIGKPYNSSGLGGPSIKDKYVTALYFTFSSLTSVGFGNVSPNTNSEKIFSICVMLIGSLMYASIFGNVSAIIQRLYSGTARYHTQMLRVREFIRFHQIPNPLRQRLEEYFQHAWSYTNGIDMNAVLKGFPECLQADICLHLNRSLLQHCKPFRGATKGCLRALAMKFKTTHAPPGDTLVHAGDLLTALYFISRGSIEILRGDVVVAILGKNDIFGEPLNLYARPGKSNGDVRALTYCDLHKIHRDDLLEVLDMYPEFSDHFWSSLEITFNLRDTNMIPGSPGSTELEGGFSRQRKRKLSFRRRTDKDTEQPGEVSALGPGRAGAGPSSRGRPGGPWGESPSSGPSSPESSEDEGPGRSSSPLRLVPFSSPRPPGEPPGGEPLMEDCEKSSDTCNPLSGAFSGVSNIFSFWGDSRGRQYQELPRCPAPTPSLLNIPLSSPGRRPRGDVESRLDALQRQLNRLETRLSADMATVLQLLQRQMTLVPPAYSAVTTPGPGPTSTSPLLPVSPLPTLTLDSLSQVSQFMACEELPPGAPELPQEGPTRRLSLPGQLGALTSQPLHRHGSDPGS", "assay": "primary screen, population patch clamp on CHO cells stably expressing hERG", "units": {"hERG current change (%, negative = inhibition) at 1uM": "%"}, "values": [{"smiles": "NC(=O)NCCc1ccccc1", "hERG current change (%, negative = inhibition) at 1uM": 4.61}, {"smiles": "CCOc1ccccc1NC(=O)CCS(=O)(=O)c1ccc(Br)cc1", "hERG current change (%, negative = inhibition) at 1uM": 6}, {"smiles": "O=[N+]([O-])c1ccc(C2CNC(c3ccccc3)O2)cc1", "note": "(stereo not drawn)", "hERG current change (%, negative = inhibition) at 1uM": 14.5}, {"smiles": "Cn1c(=O)c(-c2ccccc2)nc2ccccc21", "hERG current change (%, negative = inhibition) at 1uM": 6.33}, {"smiles": "O=C(Cc1ccc(Cl)cc1)NCc1ccccc1Cl", "hERG current change (%, negative = inhibition) at 1uM": 12.8}, {"smiles": "CCCOc1ccc(-c2nc(N)n[nH]2)cc1", "hERG current change (%, negative = inhibition) at 1uM": -4.68}, {"smiles": "Cc1nn2c(c1-c1ccccc1)NC1=C(C(=O)CCC1)C2c1ccccc1", "note": "(stereo not drawn)", "hERG current change (%, negative = inhibition) at 1uM": -5.57}, {"smiles": "c1ccc(CCc2cc3ccccc3[nH]2)cc1", "hERG current change (%, negative = inhibition) at 1uM": 8.75}, {"smiles": "Cc1ccc(SCC(=O)OCC(=O)N(CCC#N)c2ccccc2)cc1", "hERG current change (%, negative = inhibition) at 1uM": 14.2}, {"smiles": "Cc1ccc(NC(=O)CSc2ncnc3ccccc23)cc1S(=O)(=O)N1CCCCCC1", "hERG current change (%, negative = inhibition) at 1uM": 11}, {"smiles": "CCOc1ncccc1C(=O)Nc1cc(S(=O)(=O)N2CCCCC2)ccc1OC", "hERG current change (%, negative = inhibition) at 1uM": 4.79}, {"smiles": "O=C1C2CCCN2C(c2cccnc2)N1c1cccc(Cl)c1", "note": "(stereo not drawn)", "hERG current change (%, negative = inhibition) at 1uM": 1.06}, {"smiles": "COc1ccc(C)c2sc(N3CCCC3)nc12", "hERG current change (%, negative = inhibition) at 1uM": -12}, {"smiles": "O=C(COC(=O)c1ccccc1O)Nc1cc(S(=O)(=O)N2CCCCCC2)ccc1Cl", "hERG current change (%, negative = inhibition) at 1uM": 7.15}, {"smiles": "COc1ccc(-c2nnc(COc3ccc(Br)cc3C)o2)cc1", "hERG current change (%, negative = inhibition) at 1uM": 13.3}, {"smiles": "c1csc(-c2nc(NCC3CCCO3)c3ccccc3n2)c1", "note": "(stereo not drawn)", "hERG current change (%, negative = inhibition) at 1uM": 9.69}, {"smiles": "Oc1c(CN2CCCC(C(F)(F)F)C2)cc(Cl)c2ccccc12", "note": "(stereo not drawn)", "hERG current change (%, negative = inhibition) at 1uM": 8.18}, {"smiles": "CC(C)NC(=O)Cn1c(=O)n(CC(=O)N2CCCCC2)c(=O)c2sccc21", "hERG current change (%, negative = inhibition) at 1uM": 12.2}, {"smiles": "CCCCn1ccnc1C(=O)c1cc(S(=O)(=O)N2CCOCC2)ccc1C", "hERG current change (%, negative = inhibition) at 1uM": 11.3}, {"smiles": "Cn1c(Cn2c(=O)sc3ccccc32)nnc1SCC(=O)NCc1ccccc1", "hERG current change (%, negative = inhibition) at 1uM": 1.21}, {"smiles": "Cc1cc2n(n1)C(c1ccc3c(c1)OCO3)Nc1c(C)cccc1-2", "note": "(stereo not drawn)", "hERG current change (%, negative = inhibition) at 1uM": 8.12}, {"smiles": "O=C(CC1SCCNC1=O)Nc1cc(Cl)cc(Cl)c1", "note": "(stereo not drawn)", "hERG current change (%, negative = inhibition) at 1uM": 4.21}, {"smiles": "COc1ccc(-n2c(SCCNCCO)nc3sc4c(c3c2=O)CCCC4)cc1", "hERG current change (%, negative = inhibition) at 1uM": -2.98}, {"smiles": "c1ccc(Cn2ncc3c(NCc4ccco4)ncnc32)cc1", "hERG current change (%, negative = inhibition) at 1uM": 0.573}, {"smiles": "O=C(OCCOc1cccc(Cl)c1)c1cc(S(=O)(=O)N2CCOCC2)ccc1F", "hERG current change (%, negative = inhibition) at 1uM": 8.59}, {"smiles": "O=C(Nc1ccccc1)OCCCCCOC(=O)Nc1ccccc1", "hERG current change (%, negative = inhibition) at 1uM": 13.6}, {"smiles": "Cc1cccc(NC(=O)N2CCC(c3nc4ccccc4o3)CC2)c1", "hERG current change (%, negative = inhibition) at 1uM": 4.61}, {"smiles": "Cc1cc(=O)oc2c(C)c(OCC(=O)N3CCN(C(=O)C4COc5ccccc5O4)CC3)ccc12", "note": "(stereo not drawn)", "hERG current change (%, negative = inhibition) at 1uM": -19.9}, {"smiles": "CCCCN(C(=O)CSc1nnc(-c2ccco2)o1)c1c(N)n(Cc2ccccc2)c(=O)[nH]c1=O", "hERG current change (%, negative = inhibition) at 1uM": 16.2}, {"smiles": "O=c1cc(CN2CCN(c3ccc(F)cc3)CC2)nc2sccn12", "hERG current change (%, negative = inhibition) at 1uM": -4.42}, {"smiles": "COC(=O)C1=C(C)NC(C)=C([N+](=O)[O-])C1c1ccccc1C(F)(F)F", "note": "(stereo not drawn)", "hERG current change (%, negative = inhibition) at 1uM": 7.92}, {"smiles": "CSc1nc2c(c(=O)[nH]1)C(c1ccc(Br)cc1)CC(=O)N2", "note": "(stereo not drawn)", "hERG current change (%, negative = inhibition) at 1uM": 6.75}, {"smiles": "CN1C(=O)/C(=C/c2ccc(OC(=O)c3ccco3)cc2)SC1=S", "hERG current change (%, negative = inhibition) at 1uM": -1.75}, {"smiles": "O=C(Nc1ccccc1)c1csc(-c2ccccc2)n1", "hERG current change (%, negative = inhibition) at 1uM": 9.97}, {"smiles": "COC(=O)C1=C(c2cccc(C#N)c2)C[C@@H]2CC[C@H]1N2C(=O)NCc1cccc2ccccc12", "hERG current change (%, negative = inhibition) at 1uM": 4.58}, {"smiles": "CC(C)(C)NC(=O)C1CC(=O)OC1(C)C", "note": "(stereo not drawn)", "hERG current change (%, negative = inhibition) at 1uM": 3.56}, {"smiles": "CS(=O)(=O)N1CCc2cc(C(=O)N3CCN(c4ccccc4F)CC3)ccc21", "hERG current change (%, negative = inhibition) at 1uM": -2.95}, {"smiles": "COc1ccc(C(O)C(CN2CCOCC2)c2ccccc2)cc1F.Cl", "note": "(stereo not drawn)", "hERG current change (%, negative = inhibition) at 1uM": 6.72}, {"smiles": "c1ccc(-c2csc(-n3cccn3)n2)cc1", "hERG current change (%, negative = inhibition) at 1uM": 17}, {"smiles": "Cc1ccc(N2CCN(C(=O)c3ccccc3Br)CC2)c(C)c1", "hERG current change (%, negative = inhibition) at 1uM": 5.05}, {"smiles": "COc1ccc(NC(=O)CCNS(=O)(=O)c2ccc3c(c2)c(=O)n(C)c(=O)n3C)c(OC)c1", "hERG current change (%, negative = inhibition) at 1uM": 11.2}, {"smiles": "COc1ccc(-c2ncncc2-c2ccc(Cl)cc2)c(O)c1", "hERG current change (%, negative = inhibition) at 1uM": 10.2}, {"smiles": "CC(C)=NN/C(N)=N/C(=S)Nc1ccc(C)cc1", "hERG current change (%, negative = inhibition) at 1uM": 11.2}, {"smiles": "CCOc1ccc(C(Nc2ccc(C)cc2)P2(=O)OCCC(C)O2)cc1", "note": "(stereo not drawn)", "hERG current change (%, negative = inhibition) at 1uM": -3.18}, {"smiles": "CCC(=O)N1c2ccc(S(=O)(=O)CCC(=O)Nc3nccs3)cc2CC1C", "note": "(stereo not drawn)", "hERG current change (%, negative = inhibition) at 1uM": 5.42}, {"smiles": "FC(F)Oc1ccccc1NC(=S)NCCc1ccccc1", "hERG current change (%, negative = inhibition) at 1uM": 3.4}, {"smiles": "O=C(COC(=O)C1CCN(S(=O)(=O)c2ccc(Cl)c(C(F)(F)F)c2)CC1)NCc1ccco1", "hERG current change (%, negative = inhibition) at 1uM": 12.3}, {"smiles": "COC(=O)c1[nH]c2cccc(Cl)c2c1NC(=O)CN1CCN(CCO)CC1", "hERG current change (%, negative = inhibition) at 1uM": -2.22}, {"smiles": "COc1ccc(NC(C)=O)cc1NC(=O)C1CCN(C(=O)Nc2ccccc2)CC1", "hERG current change (%, negative = inhibition) at 1uM": 10.7}, {"smiles": "Cc1cccc(NC(=O)C(=O)NNC(=O)c2ccc(C(C)(C)C)cc2)c1", "hERG current change (%, negative = inhibition) at 1uM": 18.3}, {"smiles": "COc1cc(CO)cc(Br)c1OCc1cccnc1", "hERG current change (%, negative = inhibition) at 1uM": 13.1}, {"smiles": "COCCn1c(SCC(=O)N2CCCc3ccccc32)nc2c(c1=O)SC(C)C2", "note": "(stereo not drawn)", "hERG current change (%, negative = inhibition) at 1uM": 5.79}, {"smiles": "Cc1ccc(S(=O)(=O)N2CCCCC2)cc1NC(=O)C1CC(=O)N(Cc2ccccc2)C1", "note": "(stereo not drawn)", "hERG current change (%, negative = inhibition) at 1uM": 1.43}, {"smiles": "O=C(c1ccc(S(=O)(=O)Cc2cc(F)ccc2F)c([N+](=O)[O-])c1)N1CCCCC1", "hERG current change (%, negative = inhibition) at 1uM": -4.4}, {"smiles": "CC(=O)Nc1ccc(S(=O)(=O)N2CCN=C2c2ccccc2)cc1", "hERG current change (%, negative = inhibition) at 1uM": 14.6}, {"smiles": "CS(=O)(=O)N(CCc1ccccc1)CC(=O)N1CCN(Cc2ccc3c(c2)OCO3)CC1", "hERG current change (%, negative = inhibition) at 1uM": -9.05}, {"smiles": "O=C(c1ccc(-c2cccc(C(F)(F)F)c2)o1)N1CCCCCCC1", "hERG current change (%, negative = inhibition) at 1uM": 5.25}]}]}
